± gives the standard deviation of the averaged measurements. The list shows a part of the results.

This test deals with PfAP2-I AP2 domain 3 (GST-tagged). The experiment in a line: gcPBM binding intensity (ln(normalized median fluorescence intensity)); higher = stronger DNA binding. In short, it runs like this:
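DNA-binding domains from P. falciparum, fused to GST and produced in E. coli, were put on an Agilent 4 × 180k double-stranded probe array for 1 h in 1× PBS holding 1% milk, 0.2 mg/ml BSA, 0.5% salmon testes DNA and 0.03% Triton X-100. Probes were primer-extended, 36 bp long and drawn from intergenic genomic regions, with negative controls included. After Alexa488 anti-GST antibody detection and a 488 nm scan, binding intensity was set as the highest Masliner-normalised natural-log median intensity across replicate spots of either probe orientation.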
Turning to “TATATGATATAATATACACACATACAGATATATATA [CACACA_site4440]”, the “gcPBM binding intensity (ln)” value amounted to 7.71 ± 0.47.
To “AAATTATTAAGTGATATAATATTCTATAGATGGGGA [CACACA_negctrl_site168]” belongs 7.74 ± 0.47; to “TTTTTATAACTATATTATATAACTTTTGTACGAACT [CACACA_negctrl_site1423]”, 7.63 ± 0.54.
To “ACATATAAATAAATAAATATATATATATATATATAT [GTGCAC_negctrl_site378]” belongs 9.33 ± 0.62; to “TATTTACACCTAATCACAAATAAAATAAAATCAAAT [CACACA_negctrl_site531]”, 7.86 ± 0.46; to “TAAATCAAAATAATTTAACACACAATTTTAATACTG [CACACA_site8744]”, 7.34 ± 0.54.
Consider “GATAAGGTATTCAAATGTACAAAATGTTTTATATAA [XGTACX_site6863]”, for which the “gcPBM binding intensity (ln)” value stood at 7.64 ± 0.44.
In the case of “TAAAAAAAATATTTTTGTACGAATTAAATTTTTTTT [XGTACX_site4838]”, the “gcPBM binding intensity (ln)” value was 7.45 ± 0.61.
With “TATGAAATTTTAATTACACACAGGAAAATAAAATGG [CACACA_site4935]”, the “gcPBM binding intensity (ln)” value was determined as 8.04 ± 0.68.
In the case of “ACATATTTTTAATACACACTCAAAAAAGTACTTAAC [CACACA_site3014]”, the “gcPBM binding intensity (ln)” value worked out at 8.2 ± 0.28.
In the case of “AAAAAAAGTAAATGTTGTACTATAATATGTAATATA [XGTACX_site7966]” it was 7.58 ± 0.34; in that of “AAATAACACTAATGATGTACTCAACTATTTATAATT [XGTACX_site8183]”, 7.69 ± 0.54.
In the case of “TACATATATATTATATGTACTTATATTTTTATAATA [XGTACX_site3452]” it was 7.4 ± 0.3; in that of “ATATACATATCCATATTTATATCTATATTTAAAACA [CACACA_negctrl_site747]”, 7.56 ± 0.62.
In the case of “AACCACATACATATAACACACATATACAATCTATAT [CACACA_site1987]” it was 8.11 ± 0.45.
In the case of “ATATTAACTATCATAACACACACAGTAGACATATTT [CACACA_site6941]”, the “gcPBM binding intensity (ln)” value came out at 7.93 ± 0.59.
As for “TAAATACATAAATACACACACATATATTATATATAT [CACACA_site4310]”, the “gcPBM binding intensity (ln)” value came to 8.36 ± 0.5.
As to “TATCATATATAAAGAGGTACGTAAGAATAGAAAATT [XGTACX_site798]”, the “gcPBM binding intensity (ln)” value is 8.26 ± 0.78.
In the case of TTCTTAAAAGGAAAGGTGCAACTTTATCATTTTCTT it was 9.62 ± 0.12; in that of ATATATATTATATAAGTGCATAATATTCTTTCTTTT, 10.5 ± 0.25.
In the case of “TTTTTCATTTCTGCATTTATTTATAAATAAATATTT [CACACA_negctrl_site368]” it was 8.59 ± 0.53.
Take “TTCAAATATAAATACACACACATAGCTACAAAATAA [CACACA_site4172]”: the “gcPBM binding intensity (ln)” value turned out to be 7.83 ± 0.49.
Regarding “TATAAGAGAATATATACACACAAAAATATATACAGT [CACACA_site1668]”, the “gcPBM binding intensity (ln)” value is 7.87 ± 0.64.
To “TACACGCATGGACACACACACACACCCATATATATA [CACACA_site4522]” belongs 8.38 ± 0.87.
As to “TATATATTTTGTGTCTGTACACATATTATTAATTCC [XGTACX_site7507]”, the “gcPBM binding intensity (ln)” value was 7.81 ± 0.099.
In the case of “TTTTTTTATCAATGTTGTACTTTTTTTTTTTTCCAT [XGTACX_site8864]” it was 7.86 ± 0.59.
As to “TTAAAACCAAAACACAGTACATATATATATATATAT [XGTACX_site5668]”, the “gcPBM binding intensity (ln)” value stood at 9.6 ± 0.45.
In the case of “AAAATATATTATATATGTACATATTACGTTTTAATT [XGTACX_site2518]” it was 7.88 ± 0.4; in that of “CAATTTTAAGTAATCAATTTTTTTAAAAAACACAAA [CACACA_negctrl_site961]”, 7.71 ± 0.27; in that of “GCATAATATACTCTTACACACCATTTCTATATACAT [CACACA_site6799]”, 8.33 ± 0.68.
In the case of “TTTGTTAATTATAAATGTACATATTATATATATATA [XGTACX_site8870]” it was 9.16 ± 0.23; in that of “TATATATATATGTATACACACATATGTATGTTATGT [CACACA_site4053]”, 9.11 ± 0.29; in that of “TTGTTTTTAGTTTATACACACCATATTAATATAATG [CACACA_site7452]”, 8.26 ± 0.53.
To “ATTTGGCATGGACACACACACACACCGACAGACATA [CACACA_site4491]” belongs 7.95 ± 0.54; to “TTATATTATGGACACACACACAAAAAAAAAAAAAAA [CACACA_site7744]”, 8.14 ± 0.43; to “AAATTAATTAAATATACACACATATATAAATATATA [CACACA_site391]”, 7.46 ± 0.42.
For “ATATATATATAAAGTTGTACATTTTTTATTTTTTCA [XGTACX_site7847]”, the “gcPBM binding intensity (ln)” value came to 9.09 ± 0.16.
In the case of “TTGACACGTATATGCACACACCCGTAAGTGTCCATT [CACACA_site2764]” it was 9.485 ± 0.064.
In the case of “ATATTTTATTATTGTTGTACTTTTTTTTGATTGTTT [XGTACX_site4090]” it was 7.86 ± 0.46.
In the case of “TTTAATATTTTTCAATGTAGAAAGTTTGTCTGTTAT [CACACA_negctrl_site973]” it was 7.76 ± 0.35.
With “AGTTATAAACATATGTGTACTTATAAAAACATATAG [XGTACX_site3268]”, the “gcPBM binding intensity (ln)” value was determined as 7.87 ± 0.47.
Turning to “TCACACATATATTCATGTACATATTAATATTTCCAT [XGTACX_site5387]”, the “gcPBM binding intensity (ln)” value came to 8.3 ± 0.44.
To “TTTTTTATGAACACGTCACACATCATTAAAATGTTT [CACACA_site5934]” belongs 7.74 ± 0.64; to “TTGATGATATAAAAAAGTACTTATATTATATTATAT [XGTACX_site6492]”, 7.79 ± 0.42.

The values above are taken from the supplement of paper PMC11417369.
